The values below come from paper PMC12136788.

The list shows a part of the results.

The labels stand for the following.
B1: ENSG00000115904:stop:overlap|stop_codon|ENSG00000115904|stop_codon|NA|stop_codon (ssRNA)
RNA: GGGAGUUCUACAGUCCGACGAUCUUUUGCAACGAAUGGAAGAAUUUAUUGGAACAGUAAGAGAGCUGUACAGCCAUCAGAAUUAGUUGGAAGUGUGUGGACAAAAGAAGACAAAGAAAUUAACUCUCCUAAUCUUCUGAAAAUCAACAGAGGAUUGAGCAUCA
B2: chr1:236581285:236581397:-|CDS|ENSG00000119285|unk|FALSE|unique (ssRNA)
RNA: GGGAGUUCUACAGUCCGACGAUCCAUCUAGAAGAUGUUUUUCAGUUAUUCAAGUUCUGUUCUGUUUUAUGGACCUAUGGUUCUAGCCUUUCAAAUCCACUAAACUGCAGUGUGAAAACAGUGCUGCAGACUCAAGCUCUUUAUCAACAGAGGAUUGAGCAUCA
B3: chr7:21908192:21908293:-|CDS|ENSG00000164649|msi1|total|mutant (ssRNA)
RNA: GGGAGUUCUACAGUCCGACGAUCUUUUCCCGCGCACGCUUACAGAAUGAGAAAAAAACAAUUCUUGAAAGAAAGAAAGACUGCCGACAGGUGAUACAAAGGGAAGAUUCUACCUCUGAGUCUGAGGAUGACUCUCGGGAUGAGCAACAGAGGAUUGAGCAUCA
B4: chr3:48467913:48467962:-|3pUTR|ENSG00000164054|msi1_unk|total|mutant (ssRNA)
RNA: GGGAGUUCUACAGUCCGACGAUCCCCAGACAUGAAUACCUCGUGUUCCUCCUCCCUCUAUUACUGUUUCACCAGAGCUGUCUCCGCUCAAAUCUGUUGUGUUUCUGAGUCCCGGGUCUGUACACUUGUUUAUAAUAAAUGCAACAACAGAGGAUUGAGCAUCA
B5: chr13:75481370:75481471:-|CDS|ENSG00000136111|msi1|FALSE|unique (ssRNA)
RNA: GGGAGUUCUACAGUCCGACGAUCCUCAGCGCGCCCUUCCUGCGUUGCGUCCCCGCGCCGGGCGCUGGGGCCUCGGGGGGCACUAGUCCGUCGGCCACGCAGCCCAACCCGGCGGUAUUCAUCUUCGAGCACAAGGCGCAGCAUCAACAGAGGAUUGAGCAUCA
B6: chr20:23354638:23354749:+|3pUTR|ENSG00000132661|unk|FALSE|unique (ssRNA)
RNA: GGGAGUUCUACAGUCCGACGAUCAAGUUCUAGGAGUCCCUUUCCUGAAUAUAUACUUGUUUGUCAUAGUUUCCUUUUCAAAGUAGUAAACUUUUCUAUUUUUCUACUUGCCCAGUAGAGACUCUGAUUCUGGAAAUUCUGACACAACAGAGGAUUGAGCAUCA
B7: chr13:29511929:29512034:-|3pUTR|ENSG00000139514|msi1_unk|FALSE|overlapping (ssRNA)
RNA: GGGAGUUCUACAGUCCGACGAUCUAUCAUAUCCCUCAUUUCUUUCCCUGAAAUAAAAAUACACACAAGCAAAAAAAAAAUGAUAGUUUCACAUCUCUUAGUUCCCUUGCCCAAACAAGAAUAUUCUUAGUUCCACUGGCCAGGCAACAGAGGAUUGAGCAUCA
B8: chr19:34227675:34227687:+|3pUTR|ENSG00000257103|msi1_unk|FALSE|overlapping (ssRNA)
RNA: GGGAGUUCUACAGUCCGACGAUCUUAAAACAUGAGCAUUAAAUAUAUUUGGAAUAGCAGAAGGUUAAGUAAUUUCUUAUGUAUAGUUAAACUAAAGCAGUACUUCAGUGGGACUUAACAAGUAUUUUUUCAUCACUGAAAGGUCAACAGAGGAUUGAGCAUCA
B9: chr6:105099394:105099495:-|3pUTR|ENSG00000112276|msi1|FALSE|unique (ssRNA)
RNA: GGGAGUUCUACAGUCCGACGAUCUCCGUUGAAUGAAGCUCAUUGAUUGGCCAUGCUGGUCAUGUCUAUUUUGCUUCAUCCACUAGAACCAACUUUGAGUCAGUCUCCUGUUACGUUAAAUGGCUAAGAAAAGUUCCAAAUGAACAACAGAGGAUUGAGCAUCA
B10: chr12:47968718:47968836:+|3pUTR|ENSG00000134291|unk|total|mutant (ssRNA)
RNA: GGGAGUUCUACAGUCCGACGAUCCUGGGAGCUUUUUGAAAAGAAAGAAAAAAGUGUGUUGGCUUUUUUUUUUUUCCGAAAGUCCGAAUUGUUUUUACCAAGAGUCUAUGUGGGGCUUGAUUCACCCUUCAUCCAUUGGCUGGACAACAGAGGAUUGAGCAUCA
B11: chr20:38493008:38493109:+|CDS|ENSG00000170471|unk|FALSE|unique (ssRNA)
RNA: GGGAGUUCUACAGUCCGACGAUCAUUGGAUGGAGAGACUGUAAAAUAUUGCGUUGAUGUAUAUACAGACUGGAUUAUGGCUUUAGUGUUGCCAAAAGAUUCUAUUCCAUUGCCAGUUAUUAAAGAGCCUAAUCAAUAUGUUCACAACAGAGGAUUGAGCAUCA
B12: chr2:37644049:37644150:-|3pUTR|ENSG00000163171|msi1|FALSE|unique (ssRNA)
RNA: GGGAGUUCUACAGUCCGACGAUCUUAGGACAACUAACCAAGUAGACGAAACAAGUUCCCCUAGGCAGGGGUGUCCAAUAUUUUAGCUUCCCUGGACCGCAUUGGAAGAAUUUUCUUGGGCCACAUGUAAAACACACUAACACUCAACAGAGGAUUGAGCAUCA
B13: chrX:100644401:100644502:+|5pUTR|ENSG00000102359|unk|total|mutant (ssRNA)
RNA: GGGAGUUCUACAGUCCGACGAUCUUAACAGAAUCCCGGAGGCCGGGACAGACCAGGAGCCACUCGUUCCCGGAAUGUUAAAGCCGAAGGUUUUUUCCAAUUGAUGAGAGGAGCAGAGAGGAAGGAGAAAGAGGAGGAGAGAGACAACAGAGGAUUGAGCAUCA
B14: chr6:109481629:109481730:-|CDS|ENSG00000112365|unk|FALSE|unique (ssRNA)
RNA: GGGAGUUCUACAGUCCGACGAUCGCUCAGUUCUUAAAAGUCUAUGACCUGGUAAAGGCUUACACAGACUUCCAAAAUAAUCAUAGCUCCCCAAAGCCAACAACUUUGAACACUGCUGGUGCCCCAGUGGUUGUUAUCUCUAAUCAACAGAGGAUUGAGCAUCA

This assay concerns the target MSI1 full-length (mouse, UniProt Q61474 1-362). The experiment in a line: nsRBNS (natural sequence RNA bind-n-seq); RBNS binding buffer (assumed for nsRBNS): 25 mM Tris pH 7.5, 150 mM KCl, 3 mM MgCl2, 0.01% Triton X-100, 500 ug/ml BSA, 20 U/ml SUPERase-In, 4 C; UNK is unkempt and MSI1 is Musashi-1; names of the RNAs are library labels; protein concentration not given here; high values mean tight binding.
Sequence of UniProt Q61474 (Q61474 whole entry): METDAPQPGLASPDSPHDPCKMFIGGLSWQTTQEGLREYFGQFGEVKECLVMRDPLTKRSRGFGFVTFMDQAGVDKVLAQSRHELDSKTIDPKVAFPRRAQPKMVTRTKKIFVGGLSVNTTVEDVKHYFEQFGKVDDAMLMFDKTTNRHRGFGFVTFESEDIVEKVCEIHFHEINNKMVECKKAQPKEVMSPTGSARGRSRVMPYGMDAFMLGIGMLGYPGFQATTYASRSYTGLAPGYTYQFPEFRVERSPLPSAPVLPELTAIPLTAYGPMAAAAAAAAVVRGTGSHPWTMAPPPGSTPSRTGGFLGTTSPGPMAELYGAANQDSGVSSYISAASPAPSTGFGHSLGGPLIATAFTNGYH
B1 came in with a binding signal of 1.25 enrichment R. In the case of B2 it was 0.495 enrichment R; in that of B3, 0.397 enrichment R. Molecule B4 yielded a binding signal of 0.67 enrichment R. For B5, the binding signal came out at 0.232 enrichment R. The molecule B6 registered a binding signal of 0.579 enrichment R. In the case of B7 it was 1.98 enrichment R; in that of B8, 12.1 enrichment R.

As for B9, the binding signal was 0.225 enrichment R. With B10, the binding signal came out at 0.254 enrichment R. The molecule B11 registered a binding signal of 0.505 enrichment R.

On to B12, for which the binding signal came out at 1.22 enrichment R. Under B13 stands 0.501 enrichment R; under B14, 0.492 enrichment R.
